The full data set covers some 21,000 targets. This sample favours those with the largest changes.

The text below walks through data of the supplement of paper PMC12067093, “Discovery and optimisation of a covalent ligand for TRIM25 and its application to targeted protein ubiquitination” (Chemical Science, 2025).
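Further: competitive chemoproteomic profiling in live THP-1 cells with an iodoacetamide desthiobiotin (IA-DTB) probe, comparing probe-labelled peptide intensities in compound-treated cells against DMSO-treated controls.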

UniProt Q9UPT5, sequence (Q9UPT5 whole entry, looked up): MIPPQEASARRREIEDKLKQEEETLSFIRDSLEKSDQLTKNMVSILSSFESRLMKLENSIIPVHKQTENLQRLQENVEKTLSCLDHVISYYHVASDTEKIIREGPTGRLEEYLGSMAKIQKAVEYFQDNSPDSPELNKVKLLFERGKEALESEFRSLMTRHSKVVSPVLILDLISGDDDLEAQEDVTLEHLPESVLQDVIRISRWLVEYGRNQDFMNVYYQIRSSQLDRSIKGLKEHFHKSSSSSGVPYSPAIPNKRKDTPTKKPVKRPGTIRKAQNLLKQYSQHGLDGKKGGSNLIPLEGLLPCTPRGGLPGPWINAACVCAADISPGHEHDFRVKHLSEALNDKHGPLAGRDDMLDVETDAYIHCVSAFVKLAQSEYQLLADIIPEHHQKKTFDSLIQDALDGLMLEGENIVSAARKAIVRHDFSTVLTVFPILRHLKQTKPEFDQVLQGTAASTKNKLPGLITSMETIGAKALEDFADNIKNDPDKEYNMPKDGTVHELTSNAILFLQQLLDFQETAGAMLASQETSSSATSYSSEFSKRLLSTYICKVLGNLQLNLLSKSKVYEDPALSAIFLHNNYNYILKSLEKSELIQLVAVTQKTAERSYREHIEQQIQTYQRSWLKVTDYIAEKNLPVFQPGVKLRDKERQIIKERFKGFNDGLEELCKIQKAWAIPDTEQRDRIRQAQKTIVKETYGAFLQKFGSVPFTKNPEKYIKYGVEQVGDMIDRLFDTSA
UniProt Q8N531, sequence (Q8N531 whole entry, looked up): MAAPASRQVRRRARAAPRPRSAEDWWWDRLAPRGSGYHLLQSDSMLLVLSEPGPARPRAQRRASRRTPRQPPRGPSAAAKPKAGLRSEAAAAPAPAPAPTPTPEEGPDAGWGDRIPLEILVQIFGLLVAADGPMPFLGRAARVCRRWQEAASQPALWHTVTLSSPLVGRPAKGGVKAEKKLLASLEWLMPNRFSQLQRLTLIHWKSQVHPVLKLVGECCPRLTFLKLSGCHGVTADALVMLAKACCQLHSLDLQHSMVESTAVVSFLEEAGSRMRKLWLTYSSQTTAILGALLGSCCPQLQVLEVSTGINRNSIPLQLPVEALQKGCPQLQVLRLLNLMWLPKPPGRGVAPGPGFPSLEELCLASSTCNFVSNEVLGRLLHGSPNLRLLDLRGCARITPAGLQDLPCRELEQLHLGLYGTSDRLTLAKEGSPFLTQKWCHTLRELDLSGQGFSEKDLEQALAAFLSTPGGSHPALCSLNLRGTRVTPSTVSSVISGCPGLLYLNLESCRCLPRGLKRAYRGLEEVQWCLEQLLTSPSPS
UniProt Q9NVI1, sequence (Q9NVI1 whole entry, looked up): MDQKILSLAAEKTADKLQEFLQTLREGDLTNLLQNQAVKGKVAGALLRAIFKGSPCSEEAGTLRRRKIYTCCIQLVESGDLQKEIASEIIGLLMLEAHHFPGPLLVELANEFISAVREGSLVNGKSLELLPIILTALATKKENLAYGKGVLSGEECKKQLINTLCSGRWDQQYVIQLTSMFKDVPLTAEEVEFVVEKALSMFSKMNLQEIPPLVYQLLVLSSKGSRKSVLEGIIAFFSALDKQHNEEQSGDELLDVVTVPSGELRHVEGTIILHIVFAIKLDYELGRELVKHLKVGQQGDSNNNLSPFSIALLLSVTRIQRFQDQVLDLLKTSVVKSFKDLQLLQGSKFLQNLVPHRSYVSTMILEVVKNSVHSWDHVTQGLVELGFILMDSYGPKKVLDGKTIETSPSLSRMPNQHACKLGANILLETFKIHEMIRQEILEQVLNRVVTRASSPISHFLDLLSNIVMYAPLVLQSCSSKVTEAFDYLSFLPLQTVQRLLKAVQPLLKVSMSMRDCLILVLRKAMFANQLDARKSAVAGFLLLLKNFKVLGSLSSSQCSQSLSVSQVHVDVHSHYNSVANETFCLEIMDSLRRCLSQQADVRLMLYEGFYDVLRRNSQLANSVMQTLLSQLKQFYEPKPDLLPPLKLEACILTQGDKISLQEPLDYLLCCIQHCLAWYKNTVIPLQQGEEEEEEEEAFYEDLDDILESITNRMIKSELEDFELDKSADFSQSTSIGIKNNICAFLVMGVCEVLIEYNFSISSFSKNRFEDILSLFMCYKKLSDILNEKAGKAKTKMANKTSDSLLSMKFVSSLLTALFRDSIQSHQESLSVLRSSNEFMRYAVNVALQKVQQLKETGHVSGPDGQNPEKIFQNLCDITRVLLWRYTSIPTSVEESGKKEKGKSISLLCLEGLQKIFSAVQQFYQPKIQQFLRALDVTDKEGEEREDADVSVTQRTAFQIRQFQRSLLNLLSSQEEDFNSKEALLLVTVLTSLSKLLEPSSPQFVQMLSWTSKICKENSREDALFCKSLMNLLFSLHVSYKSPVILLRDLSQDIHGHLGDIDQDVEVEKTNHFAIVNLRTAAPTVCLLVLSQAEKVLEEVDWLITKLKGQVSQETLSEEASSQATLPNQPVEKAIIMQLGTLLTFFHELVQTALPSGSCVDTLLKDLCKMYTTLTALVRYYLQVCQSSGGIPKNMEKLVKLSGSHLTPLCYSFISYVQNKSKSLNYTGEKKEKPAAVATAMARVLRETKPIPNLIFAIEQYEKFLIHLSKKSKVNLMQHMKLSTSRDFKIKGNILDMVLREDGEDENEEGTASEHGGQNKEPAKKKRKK
UniProt P57772, sequence (P57772 whole entry, looked up): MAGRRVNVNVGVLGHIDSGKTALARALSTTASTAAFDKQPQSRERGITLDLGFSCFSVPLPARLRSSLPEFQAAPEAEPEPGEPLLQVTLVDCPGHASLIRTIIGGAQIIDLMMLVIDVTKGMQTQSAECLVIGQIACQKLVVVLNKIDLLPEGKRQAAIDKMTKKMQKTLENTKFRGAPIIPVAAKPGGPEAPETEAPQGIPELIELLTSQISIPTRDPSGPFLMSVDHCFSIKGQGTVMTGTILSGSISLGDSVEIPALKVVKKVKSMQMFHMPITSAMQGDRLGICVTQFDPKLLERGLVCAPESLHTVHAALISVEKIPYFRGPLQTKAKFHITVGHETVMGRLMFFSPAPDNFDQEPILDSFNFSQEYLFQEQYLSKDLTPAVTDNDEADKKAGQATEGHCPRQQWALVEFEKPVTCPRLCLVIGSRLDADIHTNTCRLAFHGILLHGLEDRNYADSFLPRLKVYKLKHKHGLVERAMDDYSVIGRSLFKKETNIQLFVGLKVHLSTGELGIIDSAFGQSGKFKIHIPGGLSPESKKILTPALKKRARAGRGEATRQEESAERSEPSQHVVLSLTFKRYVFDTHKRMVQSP
UniProt P26641, sequence (P26641 whole entry, looked up): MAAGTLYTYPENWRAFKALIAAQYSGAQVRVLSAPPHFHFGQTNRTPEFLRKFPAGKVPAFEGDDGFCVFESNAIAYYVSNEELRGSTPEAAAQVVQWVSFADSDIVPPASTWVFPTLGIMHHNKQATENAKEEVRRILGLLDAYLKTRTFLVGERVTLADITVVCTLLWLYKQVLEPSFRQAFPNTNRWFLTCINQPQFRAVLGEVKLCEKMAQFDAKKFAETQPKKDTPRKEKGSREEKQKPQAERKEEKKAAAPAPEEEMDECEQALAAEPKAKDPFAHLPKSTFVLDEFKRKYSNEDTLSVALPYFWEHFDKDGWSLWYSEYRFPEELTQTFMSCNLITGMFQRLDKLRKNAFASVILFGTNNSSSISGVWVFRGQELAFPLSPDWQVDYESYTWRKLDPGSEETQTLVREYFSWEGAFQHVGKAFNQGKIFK
UniProt Q4L180, sequence (Q4L180 whole entry, looked up): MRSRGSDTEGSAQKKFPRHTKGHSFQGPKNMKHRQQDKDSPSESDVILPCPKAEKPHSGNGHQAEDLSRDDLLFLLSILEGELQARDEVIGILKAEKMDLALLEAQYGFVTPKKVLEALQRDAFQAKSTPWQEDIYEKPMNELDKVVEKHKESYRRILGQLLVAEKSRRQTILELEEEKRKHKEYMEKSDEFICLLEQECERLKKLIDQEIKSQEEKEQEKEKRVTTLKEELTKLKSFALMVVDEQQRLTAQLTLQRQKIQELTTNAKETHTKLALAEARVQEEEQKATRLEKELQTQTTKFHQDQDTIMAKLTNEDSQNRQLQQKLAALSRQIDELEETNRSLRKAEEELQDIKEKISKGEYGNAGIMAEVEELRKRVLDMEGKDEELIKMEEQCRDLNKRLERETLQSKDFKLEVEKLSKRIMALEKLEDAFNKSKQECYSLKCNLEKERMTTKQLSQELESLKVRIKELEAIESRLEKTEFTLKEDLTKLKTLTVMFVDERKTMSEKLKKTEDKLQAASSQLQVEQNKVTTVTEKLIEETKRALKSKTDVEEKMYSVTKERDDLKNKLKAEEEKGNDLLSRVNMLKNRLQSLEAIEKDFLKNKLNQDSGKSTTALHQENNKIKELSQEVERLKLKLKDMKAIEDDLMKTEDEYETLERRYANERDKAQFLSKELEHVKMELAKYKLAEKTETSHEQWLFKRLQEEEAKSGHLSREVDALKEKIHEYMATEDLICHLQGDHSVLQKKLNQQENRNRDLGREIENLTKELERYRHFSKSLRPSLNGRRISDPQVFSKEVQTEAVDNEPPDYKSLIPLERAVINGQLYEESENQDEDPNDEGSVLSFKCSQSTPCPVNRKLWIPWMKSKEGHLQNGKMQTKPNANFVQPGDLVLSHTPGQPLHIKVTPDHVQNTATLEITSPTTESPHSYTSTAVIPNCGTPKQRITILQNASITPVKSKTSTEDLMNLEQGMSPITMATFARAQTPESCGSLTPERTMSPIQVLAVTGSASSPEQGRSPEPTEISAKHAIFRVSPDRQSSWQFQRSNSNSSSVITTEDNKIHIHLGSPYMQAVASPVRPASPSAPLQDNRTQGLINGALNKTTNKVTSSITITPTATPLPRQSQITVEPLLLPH
UniProt Q00688, sequence (Q00688 whole entry, looked up): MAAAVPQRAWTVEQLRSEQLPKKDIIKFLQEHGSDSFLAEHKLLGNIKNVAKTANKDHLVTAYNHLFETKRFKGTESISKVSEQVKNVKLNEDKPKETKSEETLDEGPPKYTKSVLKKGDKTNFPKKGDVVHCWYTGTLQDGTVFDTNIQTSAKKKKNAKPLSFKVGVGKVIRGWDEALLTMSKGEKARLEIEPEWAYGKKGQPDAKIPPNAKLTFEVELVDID

Compound in this experiment: CC1Cc2ccccc2N1C(=O)C1CCCN(C1)C(=O)CCl (mixture of isomers) [TRIM25 ligand 11 (diastereomer mixture)]
Description: probe-labelled cysteine peptide fold change vs DMSO (competition) (log2 fold change); higher = less target engagement (more negative = stronger competition). The note with it: 10 µM; THP-1; incubation time: 4 h.
Regarding “FBXL6_Q8N531_476_DLEQALAAFLSTPGGSHPALCSLNLR (UniProt Q8N531)”, the “probe-labelled cysteine peptide fold change” value was 0.177.

For the target “EXOC7_Q9UPT5_367_HGPLAGRDDMLDVETDAYIHCVSAFVK (UniProt Q9UPT5)”, the “probe-labelled cysteine peptide fold change” value is -0.126.

For the target “FCHSD2_O94868_33_HQAECDLLEDMR (UniProt O94868)”, the “probe-labelled cysteine peptide fold change” value is -0.00171.

With “FKBP3_Q00688_133_KGDVVHCWYTGTLQDGTVFDTNIQTSAKK (UniProt Q00688)”, the “probe-labelled cysteine peptide fold change” value is -0.291.

Turning to “ELAVL1_Q15717_13_SNGYEDHMAEDCR (UniProt Q15717)”, the “probe-labelled cysteine peptide fold change” value turned out to be 1.56.

In the case of “FAM120A_Q9NZB2_1088+1103_TCNTNPHLNALSTDSACR (UniProt Q9NZB2)”, the “probe-labelled cysteine peptide fold change” value is -0.216.

For “EEFSEC_P57772_406_AGQATEGHCPR (UniProt P57772)”, the “probe-labelled cysteine peptide fold change” value turned out to be 0.261.

For “ETV6_P41212_452_TDRLEHLESQELDEQIYQEDEC (UniProt P41212)”, the “probe-labelled cysteine peptide fold change” value is -0.183.

On to “FANCI_Q9NVI1_908_SISLLCLEGLQK (UniProt Q9NVI1)”, for which the “probe-labelled cysteine peptide fold change” value was -0.114.

Turning to “FILIP1L_Q4L180_990_AQTPESCGSLTPER (UniProt Q4L180)”, the “probe-labelled cysteine peptide fold change” value is -0.184.

Take “EEF1G_P26641_339_FPEELTQTFMSCNLITGMFQR (UniProt P26641)”: the “probe-labelled cysteine peptide fold change” value is 0.678.

In the case of “FBXO3_Q9UK99_324_ACQLDSR (UniProt Q9UK99)”, the “probe-labelled cysteine peptide fold change” value came out at 0.0804.

For “FBXL18_Q96ME1_406_HLCQLLAR (UniProt Q96ME1)”, the “probe-labelled cysteine peptide fold change” value is -0.0499.

Take “ENOX2_Q16206_216_DDLYEWECK (UniProt Q16206)”: the “probe-labelled cysteine peptide fold change” value was found to be 0.0541.

“EHD4_Q9H223_495_LADCDCDGMLDEEEFALAK (UniProt Q9H223)”: the “probe-labelled cysteine peptide fold change” value is 0.0484.

For “ERO1B_Q86YB8_165_YDDSRDHFCELDDERSPAAQYVDLLLNPER (UniProt Q86YB8)”, the “probe-labelled cysteine peptide fold change” value was -0.0829.
